Data on 88 sequences can be found in the supplement of paper PMC11417369.

± gives the standard deviation of the averaged measurements. The list shows a part of the results.

The test system of the experiment is PfAP2-EXP AP2 domain (GST-tagged). Nature of the experiment: gcPBM binding intensity (ln(normalized median fluorescence intensity)); higher = stronger DNA binding. In short, it runs like this:
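An Agilent 4 × 180k array of primer-extended double-stranded 36-bp intergenic genomic probes, with negative controls, was incubated for 1 h with GST-tagged P. falciparum DNA-binding domains expressed in E. coli. Alexa488 anti-GST antibody detected bound protein, scanned at 488 nm. Binding intensity is the highest Masliner-normalised natural-log median intensity across replicate spots of either probe orientation.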
Turning to “TAGGAAAAGAAAAGCACACACATAAATAGATATATA [CACACA_site6382]”, the “gcPBM binding intensity (ln)” value was 8.71 ± 0.53.
As for “TTAAATAGAAATAAGACTAACAATGAACCAAAAAAA [CACACA_negctrl_site991]”, the figure is 8.87 ± 0.43; as for “TTTTGAAAAAGTTGCACACAAAATTTAAAAAAAAAA [CACACA_site1632]”, 8.4 ± 0.43; as for “TCGTATATGGATTTTGCACACAATTTTAATTTAAAT [CACACA_site4635]”, 9 ± 0.28.
Then “ATGATTTGTCTGAAATGTACATATATATATATATAT [XGTACX_site5247]”, with 10.3 ± 0.47; and “AACAAATAAACAAAATTGGAAAATAAAAATATCAAA [CACACA_negctrl_site1125]”, with 8.62 ± 0.33; and TAATAATTTTATAAAGTGCATAAAAATAAAAATTTT, with 8.49 ± 0.2.
Then “TTTTTTTTTTTTTTAATTAATTACCTTTGAATGTGT [CACACA_negctrl_site393]”, with 7.92 ± 0.64; and “ATTATTTTTTTATGTTGTACATAATATTTTTTAAAA [XGTACX_site1666]”, with 8.82 ± 0.45; and “TAATATTTATAAAATAGTACACAGAAAAAGCATTTT [XGTACX_site8948]”, with 8.72 ± 0.47.
Take “TTCCAACATTGTTTTTGTACATAATTAACTGTTATT [XGTACX_site5224]”: the “gcPBM binding intensity (ln)” value is 8.84 ± 0.44.
Take “CTTAAAAATAACTGCACACAAAAATAAATACCTTAT [CACACA_site2793]”: the “gcPBM binding intensity (ln)” value stood at 8.56 ± 0.46.
Then “ATATATATGGATGGACGTACGTATGTATGTAATTTC [XGTACX_site4135]”, with 9.26 ± 0.39; and “ATATATATTTTATTATGTACATATAAATATTACACA [XGTACX_site4062]”, with 8.61 ± 0.31; and “GAAAAAATATATAAATGTACATATAATAATATCATA [XGTACX_site6788]”, with 8.51 ± 0.3.
As for “AAATATTATGTGGCAAGTACATAAAGAAAATGCTTA [XGTACX_site3356]”, the figure is 8.48 ± 0.47.
On to “ATAATAAGGTTAAGCACACATATTACAGATATAACT [CACACA_site5791]”, for which the “gcPBM binding intensity (ln)” value turned out to be 8.48 ± 0.52.
As for “AATAATAATAATAATAGTACATATTATGAATATGAT [XGTACX_site5730]”, the figure is 8.29 ± 0.3.
As for “TTAAAAATGATTGAATGTACAGATTAATATAATTTT [XGTACX_site7394]”, the figure is 8.22 ± 0.35.
As for “ATAAATATGGAGCACACACACATAAACATACCTATA [CACACA_site6336]”, the figure is 8.77 ± 0.45; as for “GATCTACATGAAAGGACACACAAATATATATATATA [CACACA_site84]”, 9.96 ± 0.22.
For the sequence “TAATTTTTGAAACACACACACATATATATATATATA [CACACA_site94]”, the “gcPBM binding intensity (ln)” value came out at 10.1 ± 0.43.
As for “AAAAAAGAATAGCACACACACATATATAAATATAAA [CACACA_site4518]”, the figure is 8.64 ± 0.54; as for “TTTAAATATATATTTAGTACTTATTCTTAAAATTTT [XGTACX_site624]”, 8.47 ± 0.33.
As for “TTTTTTTTTTTTTGTGCATGTAGATTTATTGTTATA [TGCATGCA_site582]”, the figure is 8.91 ± 0.35; as for “GTTACATACAGATACACACACATATATATATATATA [CACACA_site4652]”, 10.2 ± 0.15.
Then “GTAGAGGATTAAGAATGTACACATAAATACATATTT [XGTACX_site8874]”, with 8.49 ± 0.092.
Consider “AATTATACATACATATATATATTTATATATATATAT [GTGCAC_negctrl_site462]”, for which the “gcPBM binding intensity (ln)” value was found to be 9.64 ± 0.21.
On to “AAAAAAAAATATATATAAAATTAAAAAATGTAATAT [GTGCAC_negctrl_site581]”, for which the “gcPBM binding intensity (ln)” value was 8.53 ± 0.55.
Turning to “ATGGGTTGTTCAAATAGTACATATGTAGCCCACCAT [XGTACX_site3735]”, the “gcPBM binding intensity (ln)” value is 8.85 ± 0.48.
Then “TTATATCCCGTCCTTTATTAAAAAAATTTTTTTTCT [TGCATGCA_negctrl_site582]”, with 8.87 ± 0.45; and “ATTAAAAAAAAAAGTATACACACTTCTTAATGTCAA [CACACA_site1244]”, with 8.72 ± 0.52.
As for “AAAGGGGCATATATATGTACATATTATATATTTTGA [XGTACX_site2436]”, the figure is 8.57 ± 0.33.
With “ATTATCCATGCATTTACACACACACCCAAAAAAATT [CACACA_site4101]”, the “gcPBM binding intensity (ln)” value amounted to 9.02 ± 0.48.
Take “AATACATTGTCAAATTGTACAAATTATAGAACTATT [XGTACX_site2222]”: the “gcPBM binding intensity (ln)” value was 8.73 ± 0.4.
As for “TGTTTTTATATATATGCACACAATGTACAAGTATAC [CACACA_site3529]”, the “gcPBM binding intensity (ln)” value is 9.01 ± 0.2.
Then “CCATAAAAAGGATACACACACACACCCACATATATA [CACACA_site903]”, with 8.71 ± 0.45; and “AAAGTCTCATTAAAATGTACAAAATTTTCAGCTGTA [XGTACX_site6296]”, with 8.36 ± 0.51; and “TATGTGAATATAATCACACACAATACGGAAACCCAC [CACACA_site2725]”, with 8.91 ± 0.52.
For the sequence “TTATATATAAACATAAAAAGAAATATATTATGTATA [CACACA_negctrl_site667]”, the “gcPBM binding intensity (ln)” value is 8.3 ± 0.55.
In the case of “TAATTTTTAATTGTAGCATGCAGTATTTTTAAATAT [TGCATGCA_site140]”, the “gcPBM binding intensity (ln)” value was found to be 9.21 ± 0.35.
On to “ATAATATTATTATAATGTACATATTTCGATATAAAT [XGTACX_site8808]”, for which the “gcPBM binding intensity (ln)” value amounted to 8.61 ± 0.42.
As for “GATTATACAAAATATACACACGTGTAGACAAATATT [CACACA_site4785]”, the figure is 8.89 ± 0.47; as for “ATATTTAATGTTAATTGTACATATTATATATATATA [XGTACX_site6095]”, 9.82 ± 0.14.
As for “ATATATATTAATAGGTGTACATATAAAGTGTTATGT [XGTACX_site5464]”, the figure is 8.78 ± 0.2; as for “AAAAAAATATATATTACACACATATATACCTATATA [CACACA_site5688]”, 8.18 ± 0.47; as for “TAATAATGCAACCTCTGTACACAACATTATATCCAT [XGTACX_site7596]”, 8.93 ± 0.36.
As for “AAAAAAAAATTTTTAAAATTTAGAAAATTTAAAAAA [GTGCAC_negctrl_site649]”, the figure is 8.02 ± 0.4; as for “TATATATAAGCGTGTACACATTCTGAGTGTTGTATA [CACACA_site4502]”, 8.75 ± 0.31.
Take “ATTGTCTTCTCATATACACACTTTTATGACTATCTT [CACACA_site5696]”: the “gcPBM binding intensity (ln)” value was 8.94 ± 0.44.
As for “TGTGTAATTATATATAAGGAGAAAGAATTCATTTTT [CACACA_negctrl_site670]”, the figure is 8.44 ± 0.56; as for “TATTGAAGTTATAAAGTGCAGATAAATATGAGTTAT [GTGCAC_site9945]”, 8.99 ± 0.18.
On to “ACAAAAAATAATCAAAATGTATATATATAATATAAT [XGTACX_negctrl_site593]”, for which the “gcPBM binding intensity (ln)” value is 8.39 ± 0.31.
As to “AAATGCCATATAATTTTTCTTAAACATAATTGTATA [CACACA_negctrl_site1665]”, the “gcPBM binding intensity (ln)” value came to 8.06 ± 0.54.
Then “AAAATAGCTGTATAGAGTACATATAAATAATGTTGT [XGTACX_site5692]”, with 8.47 ± 0.36; and “TAAAATAAAAGTGAAACACACAGTATTTTACAACAT [CACACA_site3811]”, with 8.47 ± 0.46; and “TGCAAAAAATTCCACACACACACACGCATATAAATA [CACACA_site6696]”, with 8.84 ± 0.25.
Then “ATATAATGACAAGTATAAGTATCACAAAGAAATAAA [CACACA_negctrl_site1403]”, with 8.86 ± 0.4.
As for “CCACTTTTTGAAGACACACACAAAAAAAAAAAAAAA [CACACA_site2551]”, the figure is 8.15 ± 0.47; as for “TTTTGAAGAAAATTCTTTTTTTTTTTTTTTTGTAAA [CACACA_negctrl_site102]”, 7.61 ± 0.51.
Regarding “CAAGCTTTTTCCTTTACACACATTAATTATATATAT [CACACA_site1423]”, the “gcPBM binding intensity (ln)” value was 8.89 ± 0.52.
As for “ATAACAATTATTTGTCGACACACGTATATGTTATTT [CACACA_site1766]”, the figure is 9.04 ± 0.71; as for “CATTTTTCTATATGTGCATGTAAGATAAGAATAATT [TGCATGCA_site107]”, 8.84 ± 0.18; as for “TTTCGTCATTTTGTTTTTAATTCTACAATTTAGTTA [XGTACX_negctrl_site286]”, 9.04 ± 0.26.
As for “TCATATAATATTTATATGCACACTTTTCTATATATA [CACACA_site4075]”, the figure is 8.53 ± 0.38; as for “ACTTACACATTTATTACACACATAAAGGAAAATTTT [CACACA_site1356]”, 8.74 ± 0.36.
As for TTAAAAAATAACAAGGTGCAAATAGGTTTATAAAAT, the figure is 9.21 ± 0.32; as for “ATATTTAAATGGATCACACATATATATATATATATA [CACACA_site5255]”, 10.3 ± 0.3; as for “CGCGAAGTAGCATTCACACACAGCAAAATATATATA [CACACA_site3495]”, 8.68 ± 0.49.
For the sequence “CACTAATAGTGGATTACACACATATATATGTATATA [CACACA_site2531]”, the “gcPBM binding intensity (ln)” value was 8.54 ± 0.3.
Then “TACTAAAACCCATACACACACATATATATAGTACCA [CACACA_site3184]”, with 8.61 ± 0.65; and “TTTTTAACATTTAAATGTACATGTTACAATTTAAAG [XGTACX_site8789]”, with 8.44 ± 0.29; and “AGAGACTTAGAAAACACACATACATAAGATAATTTA [CACACA_site2377]”, with 8.53 ± 0.43.
For “TTTTTATTTTTATACATATAATATATTATGATTAAA [CACACA_negctrl_site214]”, the “gcPBM binding intensity (ln)” value was 8.5 ± 0.37.
Regarding “ACAGCATAATCATGCTGTACATTATTTTCTTAAGTA [XGTACX_site8456]”, the “gcPBM binding intensity (ln)” value was 8.11 ± 0.39.
As for “AGAGGCCAGCTTTCTCTTCTAAACATGTACAAAAAT [GTGCAC_negctrl_site98]”, the figure is 8.63 ± 0.49; as for TGAGCACAAATACAGGTGCATATAAAATATATGACG, 8.88 ± 0.29.
Turning to “AAAAAAATAAAATGTTCACACATTTCACAATTACTT [CACACA_site4859]”, the “gcPBM binding intensity (ln)” value came to 8.09 ± 0.33.
Then “ATATATATATAGTGCACACATATAAAATATATATAA [CACACA_site2745]”, with 9.9 ± 0.071; and “TATAATATATATAGGAGTACGTATGTATATTTATAA [XGTACX_site3521]”, with 8.71 ± 0.35.
Turning to “TTTACAGATACTTGCTCACACATATGTATAAAAATA [CACACA_site4928]”, the “gcPBM binding intensity (ln)” value worked out at 8.6 ± 0.39.
Take “ACATGAAACTATAAACGTACATACATACATATATAT [XGTACX_site5011]”: the “gcPBM binding intensity (ln)” value worked out at 8.66 ± 0.25.
As for “ATATTTTATAATTTTACACACCATATAAAATAATTC [CACACA_site2797]”, the figure is 8.52 ± 0.33.
In the case of “TATATATAAAACATATGTACATATATATATATATAT [XGTACX_site419]”, the “gcPBM binding intensity (ln)” value stood at 10.2 ± 0.24.
As for “AATAGTTAAATGTACACACTAACTACATGGAATATA [CACACA_site3262]”, the figure is 8.61 ± 0.35; as for “AAGTAAAAAAATAGCACACACACAAAAACACCCACA [CACACA_site1291]”, 8.97 ± 0.47.
Then “AAAAAAAAAGGTACTACACACTATTATCAATAGAAA [CACACA_site91]”, with 8.54 ± 0.35.
Then “TACTTATTATGAAACACACACCAAAACTACAGAATA [CACACA_site6265]”, with 8.9 ± 0.52.
